Reference: PMC4336329 (PLoS ONE, 2015)
Screen size: about 310,000 compounds; about 2,200 (0.71%) showed an effect of 50% or more. The effect is printed as a negative number. Some of the results follow.

Biological target: human ether-à-go-go-related gene (hERG) potassium channel (human, UniProt Q12809)
Assay: primary screen, population patch clamp on CHO cells stably expressing hERG

Chain of human ether-à-go-go-related gene (hERG) potassium channel (Q12809 whole entry, looked up): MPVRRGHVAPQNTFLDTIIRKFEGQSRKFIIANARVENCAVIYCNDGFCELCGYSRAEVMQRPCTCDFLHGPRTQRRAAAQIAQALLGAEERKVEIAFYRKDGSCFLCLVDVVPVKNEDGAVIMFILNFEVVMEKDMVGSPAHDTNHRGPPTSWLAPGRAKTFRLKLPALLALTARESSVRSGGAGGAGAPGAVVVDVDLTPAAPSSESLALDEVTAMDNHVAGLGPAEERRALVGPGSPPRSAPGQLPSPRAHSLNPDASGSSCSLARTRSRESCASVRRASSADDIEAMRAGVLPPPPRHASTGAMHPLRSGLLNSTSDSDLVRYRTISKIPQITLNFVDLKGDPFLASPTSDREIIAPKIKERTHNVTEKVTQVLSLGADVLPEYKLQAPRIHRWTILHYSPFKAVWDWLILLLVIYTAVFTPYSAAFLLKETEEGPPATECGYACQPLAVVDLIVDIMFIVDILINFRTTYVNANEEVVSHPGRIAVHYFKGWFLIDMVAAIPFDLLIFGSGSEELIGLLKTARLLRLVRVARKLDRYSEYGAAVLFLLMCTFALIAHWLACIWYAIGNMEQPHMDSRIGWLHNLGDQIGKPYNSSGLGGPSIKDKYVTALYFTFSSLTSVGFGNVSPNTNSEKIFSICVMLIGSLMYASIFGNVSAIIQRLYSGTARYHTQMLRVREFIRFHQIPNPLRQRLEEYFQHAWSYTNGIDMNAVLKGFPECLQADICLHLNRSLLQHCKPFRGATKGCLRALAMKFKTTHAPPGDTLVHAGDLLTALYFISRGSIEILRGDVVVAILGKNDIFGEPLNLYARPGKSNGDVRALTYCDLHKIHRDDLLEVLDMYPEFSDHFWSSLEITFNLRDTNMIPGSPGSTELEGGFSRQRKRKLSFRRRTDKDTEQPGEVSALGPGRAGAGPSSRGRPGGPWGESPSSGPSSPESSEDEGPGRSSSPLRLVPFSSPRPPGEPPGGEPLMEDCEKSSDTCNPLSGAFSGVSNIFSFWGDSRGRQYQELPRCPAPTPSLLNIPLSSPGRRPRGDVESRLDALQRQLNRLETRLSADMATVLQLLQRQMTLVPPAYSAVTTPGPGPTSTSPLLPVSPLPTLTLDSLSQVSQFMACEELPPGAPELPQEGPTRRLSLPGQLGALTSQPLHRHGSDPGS

Structure (SMILES)	hERG current change (%, negative = inhibition) at 1uM
COc1ccc(N2CCN(C(=O)c3ccncc3)CC2)cc1	-15.1%
CCOC(=O)N1CCN(C(=O)CSc2ccc(-c3ccncc3)nn2)CC1	8.65%
CC(C)(C)NC(=O)CSc1ncnc2c1cnn2-c1ccccc1	2.16%
NC(=O)c1cc(C(=O)c2ccc(Cl)cc2)c[nH]1	17%
O=C(NCCc1nc2ccccc2[nH]1)/C(=C/c1ccc2c(c1)OCO2)NC(=O)c1ccccc1	-14.2%
CCOc1ccc2nc(SC(C)C(N)=O)[nH]c2c1 (stereo not shown)	15.5%
O=C(CCc1nc2ccccc2s1)c1ccccc1	18.4%
C1CCCC(NC2=NCCO2)CCC1	9.24%
CC(=O)Nc1ccc(NC(=O)CSc2nnc(NC(=O)C3CC3)s2)cc1	5.05%
Cc1noc(C)c1S(=O)(=O)N1CCN(c2ccc([N+](=O)[O-])cc2)CC1	-41.4%
CCn1c(SCC(=O)NC(C)c2ccccc2)nc2ccccc21 (stereo not shown)	17.2%
Cc1cs/c(=N\N=C\c2cccc([N+](=O)[O-])c2)n1Cc1ccco1	12%
CCOc1ccc(/C=C/C(=O)N2CCOCC2)cc1OC	2.44%
Cc1ccccc1CN1CCc2c(OCC(=O)N3CCCc4ccccc43)cccc2C1=O	15.6%
CCS(=O)(=O)c1ccc(C(=O)Nc2cccc(Cl)c2)c(Cl)c1Cl	10.5%
COc1ccc(Cl)cc1-c1nc(SCC(=O)NCC2CCCO2)n[nH]1 (stereo not shown)	10.9%
CCCCC1=NN2C(=N)CC(=O)N=C2S1	7.46%
CCc1ccc(S(=O)(=O)NCc2cn3ccccc3n2)s1	-3.39%
CCN1c2ccccc2S(=O)(=O)c2ccccc21	4.94%
COc1ccc(NC2CCCN(C(=O)c3ccc(C)nc3)C2)cc1 (stereo not shown)	2.9%
CCCCCN(C(=O)CCC(=O)OCC(=O)N(C)Cc1ccc(C)cc1)c1c(N)n(CCCC)c(=O)[nH]c1=O	20.5%
O=C(Oc1ccc2ccc(=O)oc2c1)N1CCOCC1	5.75%
Cc1ccccc1NS(=O)(=O)c1ccc(C)c(NS(C)(=O)=O)c1C	15.6%

Structure (SMILES)	hERG current change (%, negative = inhibition) at 1uM
CCn1c(SCC(=O)NC2CCCc3ccccc32)nnc1-c1cccs1 (stereo not shown)	-3.73%
O=[N+]([O-])c1ccccc1Nc1ccc(O)cc1	15.1%
Cc1ccc(NC(=O)c2ccc3c(c2)NC(=O)CS3)nc1	9.74%
O=C(c1cccc(F)c1)N1CCN(C(=O)C2CC2)CC1	12.3%
Cc1ccc(N(C(=O)c2snc(C(N)=O)c2N)C(C(=O)NC2CCCC2)c2ccncc2)cc1 (stereo not shown)	13.2%
COc1ccccc1N1C(=O)CC(c2ccccc2)CC1=O	12.5%
Cn1c(N)c(C(=O)c2cc(-c3ccccc3)nc3ccccc23)c(=O)n(C)c1=O	-1.75%
O=C1CC(/C=C/c2ccco2)=Nc2ccccc2N1	2.3%
CCO[C@H]1OC(C(N)=O)=C[C@@H](c2coc3ccccc3c2=O)[C@@H]1CCCO	9.64%
CCOC(=O)N1CCC(Nc2c(OCC)c(=O)c2=O)CC1	10.7%
O=C(OCC(=O)N1CCN(c2ccccc2)CC1)c1ccc2ncsc2c1	1.45%
Cc1cccc(NC(=O)CS(=O)CC(=O)Nc2cnc3ccccc3c2)c1C (stereo not shown)	8.1%
COc1cc(OC)cc(OC(=O)C2CCN(C(=O)c3ccc(F)cc3)CC2)c1	6.59%
COc1ccc(C)cc1NC(=O)c1cc(S(=O)(=O)N2CCCC2)cn1C	9.7%
O=C1/C(=C/c2ccc(Cl)cc2)SC(=S)N1CCC(=O)N1CCCCC1CCO (stereo not shown)	13.9%
O=C(Nc1scc(-c2cccs2)c1C(=O)O)c1cccs1	9.97%
Cc1ccccc1/C(N)=N/O	3.32%
C/C(Cn1nnc2ccccc21)=N\NC(=O)c1cccc(Br)c1	0.0846%
Cc1cccc(Nc2nc(N)nc(CN3CCN(Cc4ccc5c(c4)OCO5)CC3)n2)c1	-74.3%
O=C(CCCC1=NS(=O)(=O)c2ccccc2N1)NCCc1ccc(Cl)cc1	10.6%
Cc1ccc(Nc2nnc(SCC(=O)NC(Cc3c[nH]c4ccccc34)C(=O)O)s2)cc1 (stereo not shown)	13.1%
C=CCNC(=O)c1ccc(C)c(Br)c1	9.1%
COc1cc(C2Nc3ccc4ccccc4c3C3=C2C(=O)CC(C)(C)C3)ccc1OC(C)C(=O)O (stereo not shown)	13.4%

Structure (SMILES)	hERG current change (%, negative = inhibition) at 1uM
CC1=CCC2C(=O)N(c3ccc(N4CCOCC4)cc3)C(=O)C2C1 (stereo not shown)	7.46%
COc1ccc([N+](=O)[O-])cc1N(CC(=O)NCCCOC(C)C)S(C)(=O)=O	8.33%
CCCC/C=C1\CCc2c([nH]c3ccccc23)C1=O	11.6%
O=C1CCCCC1C(O)c1ccc(Cl)cc1 (stereo not shown)	10.2%
COc1ccc(OC)c(S(=O)(=O)NCCO)c1	12.2%
NC(=O)CSc1ncc(-c2ccc([N+](=O)[O-])cc2)[nH]1	4.81%
Cc1ccc(S(=O)(=O)c2ccc(Cl)cc2)cc1S(=O)(=O)NC(C)C(=O)O (stereo not shown)	20.1%
Brc1ccc(-c2noc(-c3ccccc3)n2)o1	9.37%
CSc1nc2c(cnn2-c2ccc(C)c(C)c2)c(=O)[nH]1	19.3%
COc1ccc(S(=O)(=O)N2CCCCC2)cc1NC(=O)c1ccc(N2CCCC2=O)cc1	0.726%
CC(C)N(C(=O)Cn1cc(S(=O)(=O)CC(=O)NCc2ccccc2)c2ccccc21)C(C)C	9.05%
CCOC(=O)Cn1nc(/C=C/c2ccccc2)ccc1=O	14.4%
O=C(NC(=S)Nc1ccc(Cl)cn1)C(c1ccccc1)c1ccccc1	4.32%
O=C(c1ccco1)N1CCN(C(=S)Nc2cccc([N+](=O)[O-])c2)CC1	-14.2%
CCN(CC)C(=O)CSc1nnc(-c2cc3ccccc3cc2O)n1CC	-7.92%
COc1cccc(N2CCN(c3ccc4nnc(CCC(=O)Nc5ccccn5)n4n3)CC2)c1	-24.6%
COc1cc(/C=N/n2nnnc2N)cc(OC)c1OC	4.9%
COc1ccc(CCNc2ncnc3c2c(C)c(C)n3CCCN(C)C)cc1OC	7.69%
Cc1ccc(NC(=O)CNC(=O)COc2ccccc2)nc1	0.125%
C#C[C@@]1(O)CCC2C3CCC4=C/C(=N/OCC(=O)NC(CCC(N)=O)C(=O)O)CC[C@]4(C)C3CC[C@@]21C (stereo partly shown)	15.5%
C/C(=N\NC(=O)c1cc(-c2cccs2)nc2ccccc12)c1ccccn1	14.9%
O=C(Cc1ccccc1)Nc1nnc(-c2ccco2)o1	4.19%
CCc1ccc(C(=O)CCC(=O)Nc2ccc(OC)c(S(=O)(=O)N3CCCCC3)c2)cc1	-1.32%

Structure (SMILES)	hERG current change (%, negative = inhibition) at 1uM
COC(=O)c1c(C)oc2ccc(NS(=O)(=O)c3cc(OC)ccc3OC)cc12	15.1%
O=C(CSc1cn[nH]n1)Nc1cccc(C(=O)O)c1	7.78%
CCOc1ccc(NS(=O)(=O)c2ccc(C(=O)NCC(c3ccco3)N3CCCC3)cc2)cc1 (stereo not shown)	1.37%
Cc1ccccc1C(=O)NCCSc1ccccc1	1.69%
CC(=O)/C(=N\Nc1ccccc1)Oc1ccc([N+](=O)[O-])cc1	-16.2%
Cc1c(C(=O)N2CCOCC2)[nH]c2ccc(OCc3ccccc3)cc12	-1.19%
CCN(CC)CP(=O)(c1ccccc1)c1ccccc1	3.14%
CCN(Cc1cc2cc(C)ccc2[nH]c1=O)C(=O)c1cccc(OC)c1	4.16%
CN(C)Cc1c(C(=O)Nc2ccccc2)[nH]c2ccccc12	0.151%
S=c1[nH]nc(C23CC4CC(CC(C4)C2)C3)n1Cc1ccco1	11.5%
COC(=O)c1c(SCc2cccc3ccccc23)nc(=O)[nH]c1C	11.7%
COc1ccc(CCn2c(C)cc(C(=O)CSc3nnnn3C)c2C)cc1	8.71%
Cc1nc2nc(-c3ccc(Cl)cc3)nn2c(C)c1Cl	13.4%
O=C(O)c1cccc(Cn2cccn2)c1	10.9%
COCCNC(=O)Nc1ccc2nc(C)sc2c1	1.91%
O=C(NCC1CCCO1)c1ccc(COc2ccccc2Br)cc1 (stereo not shown)	5.87%
O=C1c2ccccc2C(=O)N1CC1c2ccccc2CCN1C(=O)CN1CCOCC1 (stereo not shown)	2.79%
Cc1ccc(-n2ccnc(SCC(=O)NC3CCCCC3)c2=O)cc1F	14.5%
CC(=O)Nc1ccc(S(=O)(=O)NNC(=O)NC23CC4CC(CC(C4)C2)C3)cc1	10.3%
O=C(NC1CCCCC1)N(Cc1nc2ccccc2c(=O)[nH]1)C1CCCCC1	12%
CCOc1cccc(C(=O)Nc2ccccc2OC(F)F)c1	-5.79%
CC(C)C[C@H](NC(=O)[C@H]1N2C(=O)c3ccccc3C2SC1(C)C)C(=O)N[C@@H](Cc1ccccc1)C(=O)O (stereo partly shown)	9.27%
